Test results: paper PMC4336329 (PLoS ONE, 2015)
In all, about 310,000 compounds went through this assay and about 2,200 (0.71%) showed an effect of 50% or more. Effects have a minus sign here. The list shows a part of the results.

target: human ether-à-go-go-related gene (hERG) potassium channel (human, UniProt Q12809); assay: primary screen, population patch clamp on CHO cells stably expressing hERG
Sequence (Q12809 whole entry, looked up): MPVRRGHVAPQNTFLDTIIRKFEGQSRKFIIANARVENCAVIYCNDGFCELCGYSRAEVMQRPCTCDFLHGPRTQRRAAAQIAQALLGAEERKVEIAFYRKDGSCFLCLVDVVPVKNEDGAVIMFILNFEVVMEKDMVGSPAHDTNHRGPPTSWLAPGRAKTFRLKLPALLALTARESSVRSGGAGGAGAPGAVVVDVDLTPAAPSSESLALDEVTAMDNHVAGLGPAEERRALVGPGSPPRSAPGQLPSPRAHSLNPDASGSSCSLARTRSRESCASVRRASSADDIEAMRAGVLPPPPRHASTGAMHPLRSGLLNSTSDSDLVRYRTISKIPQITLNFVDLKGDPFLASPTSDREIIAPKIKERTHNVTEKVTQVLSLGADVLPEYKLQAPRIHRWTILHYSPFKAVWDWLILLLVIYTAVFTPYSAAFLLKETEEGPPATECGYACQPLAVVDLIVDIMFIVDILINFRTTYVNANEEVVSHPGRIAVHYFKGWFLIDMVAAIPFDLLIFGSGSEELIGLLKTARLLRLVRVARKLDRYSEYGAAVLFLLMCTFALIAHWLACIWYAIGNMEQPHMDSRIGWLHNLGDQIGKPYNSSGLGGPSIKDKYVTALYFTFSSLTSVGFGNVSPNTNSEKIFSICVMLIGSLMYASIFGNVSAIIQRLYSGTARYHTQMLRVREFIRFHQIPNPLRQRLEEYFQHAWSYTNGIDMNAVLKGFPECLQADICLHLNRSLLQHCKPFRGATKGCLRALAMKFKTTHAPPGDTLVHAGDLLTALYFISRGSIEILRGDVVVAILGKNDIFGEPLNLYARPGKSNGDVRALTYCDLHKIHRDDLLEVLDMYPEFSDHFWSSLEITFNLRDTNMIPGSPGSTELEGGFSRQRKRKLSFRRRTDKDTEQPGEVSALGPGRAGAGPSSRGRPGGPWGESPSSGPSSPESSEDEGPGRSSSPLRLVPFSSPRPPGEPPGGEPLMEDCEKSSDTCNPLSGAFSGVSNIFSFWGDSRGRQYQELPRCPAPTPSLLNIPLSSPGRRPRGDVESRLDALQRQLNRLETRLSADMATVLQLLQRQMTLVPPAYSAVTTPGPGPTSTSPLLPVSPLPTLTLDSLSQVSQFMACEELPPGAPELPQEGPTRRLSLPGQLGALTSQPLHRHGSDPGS

SMILES | hERG current change (%, negative = inhibition) at 1uM
CN(C[C@H](Cc1ccccc1)N(C[C@H](Cc1cccc2ccccc12)N(CCc1ccccc1)N=O)N=O)N=O.[Na+] | 10%
O=C(Nc1nccs1)C12CC3CC(C1)CC(C(=O)Nc1nccs1)(C3)C2 | 0.238%
Cc1nc2sc(-c3ccccc3)nn2c(=O)c1Br | 9.37%
COc1cc(CN2CCN(c3cc(C)ccc3C)CC2)ccc1O | 3.43%
FC(F)(F)c1ccc(C2[C@H]3CN(Cc4ccc(-c5ccccc5)cc4)[C@H](c4ccccc4)C34CC2(c2cccnc2)C4)cc1 (some centres unmarked) | 12.9%
COc1ccc(-n2c(-c3ccc(C)cc3)n[nH]c2=S)cc1 | 14.5%
COc1ccc2c(Cl)c(C(=O)NCc3ccco3)sc2c1 | 0.841%
O=C(O)c1cc2c(cc1NC(=O)c1c(F)cccc1Cl)OCCCO2 | 7.51%
CCOC(=O)c1oc2ccc(OC)cc2c1NC(=O)CN1CCN(C)CC1.Cl | 6.24%
O=C(CN1CCN(Cc2ccccc2)CC1)Nc1ccc([N+](=O)[O-])cc1C(=O)Nc1ccccc1F | -56.8%
CC(=O)NC1C(=O)N=C(SC(C)C(=O)Nc2cccc(Cl)c2)NC1=O (centres unmarked) | 19.7%
CC(C)N(C)C(=O)CCc1nnc(CCc2c[nH]c3ccccc23)o1 | 8.81%
O=C(COC(=O)c1ccc(F)cc1F)Nc1ncccn1 | -2.23%
Cn1c(-c2ccc(-c3ccccc3)cc2)c[nH]c1=S | 6.4%
CC(C)=N/N=C(\c1cccc([N+](=O)[O-])c1)C12CN3CN(CN(C3)C1)C2 | 13.9%
Cc1ccc(S(=O)(=O)N2CC(O)C[C@H]2C(=O)OCC(=O)c2ccccc2)cc1 (some centres unmarked) | 13.4%
CCC(C)NC(=O)c1cc(-c2ccc(OC)cc2)on1 (centres unmarked) | -1.11%
CC(=O)Nc1ccc(NC(C)=O)c(NC2OCC(O)C(O)C2O)c1 (centres unmarked) | 14.1%
COC(=O)CSc1cc(C)nc(NC(C)=O)n1 | 6.03%
O=C1C(Cl)=C(NS(=O)(=O)c2ccc([N+](=O)[O-])cc2)C(=O)c2ccccc21 | 12.7%
CNC(=S)N/N=C/C1=CCC2CC1C2(C)C (centres unmarked) | 7.8%
Cc1cc[n+](-c2[nH]c(=O)sc2/C=N/NC(=O)c2ccccc2[O-])cc1C | 2.09%

SMILES | hERG current change (%, negative = inhibition) at 1uM
O=C(CC1OC(=O)c2ccccc21)Nc1ccc(Cl)c(S(=O)(=O)N2CCCCC2)c1 (centres unmarked) | 16.6%
COC(=O)c1ccc(-c2ccc(C(c3c(C)[nH][nH]c3=O)c3c(C)[nH][nH]c3=O)o2)cc1 | 28.1%
Cc1cc2c(cc1S(=O)(=O)NCC(C)c1ccccc1)n(C)c(=O)c(=O)n2C (centres unmarked) | -7.07%
COCC(C)NC(=O)NC(=O)c1ccc(Cl)cc1 (centres unmarked) | 4.56%
Cc1ccc(-n2nc(-c3cccs3)cc2C(=O)NCC2CCCO2)c(C)c1 (centres unmarked) | 10.7%
COc1ccc(Nc2nnc(-c3ccc(C(=O)NCCO)cc3)c3ccccc23)cc1 | 16.3%
O=S(=O)(c1ccc(NC(=S)Nc2ccc(OC(F)F)cc2)cc1)N1CCOCC1 | -2.23%
O=C(CSc1nccn1-c1ccccc1)NCc1ccc(F)cc1 | 5.89%
CCCC1CC(CCc2ccccc2)OS(=O)(=O)N1 (centres unmarked) | 0.614%
COc1ccc(-c2cn3ccc(C)cc3n2)cc1 | 5.08%
C(=N\N=C\c1ccncc1)/c1ccncc1 | 5.24%
CC1Cc2cc(S(=O)(=O)NCc3ccccc3)ccc2N1C(=O)C1CCC1 (centres unmarked) | 17.1%
COc1cccc(C(=O)N(Cc2ccc(N(C)C)cc2)C2CCS(=O)(=O)C2)c1 (centres unmarked) | 0.397%
CCCCSC1=C(C#N)C(c2ccccc2C)CC(=O)N1 (centres unmarked) | 8.92%
COc1ccc(C(=O)Nc2nc(-c3ccc([N+](=O)[O-])cc3)c(-c3ccccc3)s2)cc1 | 9.03%
CC1CCCC(C)N1C(=O)COc1ccc([N+](=O)[O-])cc1Cl (centres unmarked) | -0.86%
CC(C)(C)C1CCC(=NNC(=O)C2COc3ccccc3O2)CC1 (centres unmarked) | 7.83%
CC(=O)c1sc(NC(=O)CCS(=O)(=O)c2ccc(Cl)cc2)nc1C | 2.86%
O=C(CSc1nncn1-c1ccccc1)Nc1ccccc1 | 11.3%
O=C(O)COc1ccc(/C=C/C(=O)c2ccc3ccccc3c2)cc1 | 9.88%
O=C(NC(=S)Nc1ccc(S(=O)(=O)Nc2nccs2)cc1)c1cccnc1 | 15.2%
Cc1cc(=O)[nH]c(N/N=C/C=C/c2ccccc2)n1 | -21.3%

SMILES | hERG current change (%, negative = inhibition) at 1uM
O=C(c1cc(COc2cccc(C(F)(F)F)c2)on1)N1CCC(c2ccncc2)CC1 | -28.8%
O=C(Nc1ccc2nn(-c3ccccc3)nc2c1)c1ccc(Br)o1 | 6.62%
COc1ccccc1-n1c(SCC(=O)N2CCOCC2)nc2cccnc21 | 6.72%
O=C(O)[C@@H]1CC(O)CN1C(=O)CCc1c[nH]c2ccccc12 (some centres unmarked) | 15.8%
Cc1ccc(NC(=S)N(Cc2cccs2)Cc2cc3cccc(C)c3[nH]c2=O)cc1 | -3.31%
CCOC(=O)/C(C#N)=C/c1ccc(OC(=O)c2ccco2)c(OCC)c1 | 7.35%
O=C(O)c1cccc(Nc2ccc([N+](=O)[O-])c3nonc23)c1 | 2.1%
Cc1nnc2ccc(-c3ccc(NC(=O)c4cccnc4Cl)cc3)nn12 | 14.5%
Cc1ccc(-c2nc(CS(=O)(=O)CC(=O)Nc3cc(F)ccc3F)c(C)o2)cc1 | 6.9%
Cc1cc(C)c(C)c(S(=O)(=O)N2CCN(CC(=O)NC(=O)NCc3ccccc3)CC2)c1C | 11.9%
O=C(COC(=O)c1ccc(Cl)cc1)NC1CCCCCC1 | 7.76%
CC(C)(C)c1cc2cccnc2n1Cc1cccc(Cl)c1 | -2.64%
COCCn1c(SCC(=O)Nc2ccc(C)cc2)nc2c(oc3ccccc32)c1=O | 9.36%
CCCOc1ccc(N2C(=O)CC(N3CCN(CCN=CC4C(=O)CC(C)(C)CC4=O)CC3)C2=O)cc1 (centres unmarked) | 13.8%
O=C(c1cc2cc(Cl)ccc2[nH]1)N1CCCCC1 | 5.58%
CN(C)/C=C/C(=O)c1ccc(-n2cccc2)cc1 | 9.29%
CCOC(=O)[C@@H]1[C@H]2COc3cc(OC)ccc3[C@@H]2N2C(=O)N(c3ccc(C(F)(F)F)cc3)C(=O)[C@@]12C | 1.83%
COc1ccccc1-n1cnc2c(c1=O)c1nc3ccccc3nc1n2-c1ccc(C)cc1 | -4.88%
NC1=NC2(CCN(Cc3ccccc3)CC2)n2c(nc3ccccc32)N1 | -1.37%
COc1ccc(N(C)C(=O)c2cc3c(s2)-c2ccccc2OC3)c(OC)c1 | 5.39%
Cc1ccc(C2=CC(c3ccc(C)cc3)n3ncnc3N2)cc1 (centres unmarked) | 6.65%
O=C(CSc1nc2ccccc2[nH]1)NC(=O)NCc1ccco1 | 5.11%

SMILES | hERG current change (%, negative = inhibition) at 1uM
S=C(Nc1ccccc1Cl)NC1CCCCCC1 | -6.2%
COc1cccc(C2NC(=O)NC(C)=C2C(=O)Nc2ccc(C)cc2)c1 (centres unmarked) | 13.1%
CN(C)CCCN(C(=O)c1ccc(S(=O)(=O)N(C)Cc2ccccc2)cc1)c1nc2cc3c(cc2s1)OCO3.Cl | -3.8%
O=c1c2ccccc2sn1-c1ccc(F)cc1 | 16.3%
COc1cc(/C=N\n2nnnc2N)ccc1OCc1ccc(F)cc1 | -2.39%
COCCn1c(=N)c(C(=O)NCc2ccco2)cc2c(=O)n3cc(C)ccc3nc21 | -92%
O=C(CC1C(=O)N(c2ccccc2)C(=O)N1C1CCCCC1)Nc1ccccc1 (centres unmarked) | 18.5%
CCOc1ccc(C(=O)Nc2ccc(S(=O)(=O)N3C[C@@H]4C[C@@H](C3)c3cccc(=O)n3C4)cc2)cc1 | -1.43%
CC(C)OC(=O)CSc1nnc(-c2ccc(Cl)cc2Cl)n1N | 3.79%
CC(/C=C/C1(O)C(C)CC(=O)CC1(C)C)OC1OC(CO)C(O)C(O)C1O (centres unmarked) | -1.48%
CCOC(=O)COc1c(Br)cc(C2NC(=O)NC(C)=C2C(C)=O)cc1OC (centres unmarked) | 12.4%
O=C(COC(=O)CC1CCCC1)Nc1cccc(F)c1 | 8.2%
COc1ccccc1/C=N\Nc1cn[nH]c(=O)c1Cl | 12.6%
COC(=O)CNC(=O)/C=C/c1ccc(OC)cc1 | 8.46%
CCOP(=O)(Cc1cc(C#N)oc1C)OCC | 11.4%
NC(=O)C1CCN(C(=O)c2ccc(-c3ccccc3Cl)o2)CC1 | 8.44%
COc1ccc(/C=C/C(=O)N2CCN(S(=O)(=O)/C=C/c3ccccc3)CC2)cc1OC | 10.1%
COc1ccc(C(CC(=O)N2CCCCC2)NC(=O)C(F)(F)F)cc1 (centres unmarked) | 4.24%
COc1ccccc1CNC(=O)COC(=O)c1cc(-c2ccco2)nc2ccccc12 | 7.64%
O=C(Cc1ccc(Cl)cc1)N/N=C/c1ccncc1 | 7.9%
